# Data taken from publication PMC4336329 (PLoS ONE, 2015).
# In all, about 310,000 compounds went through this assay and about 14,000 (4.5%) showed an effect of 50% or more. Effects have a minus sign here. The list shows a part of the results.
# Target: human ether-à-go-go-related gene (hERG) potassium channel (human, UniProt Q12809)
# Assay: primary screen, population patch clamp on CHO cells stably expressing hERG
# 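Also: peak tail current of the secondary pulse compared with the same well before compound.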
# human ether-à-go-go-related gene (hERG) potassium channel, sequence (Q12809 whole entry, looked up): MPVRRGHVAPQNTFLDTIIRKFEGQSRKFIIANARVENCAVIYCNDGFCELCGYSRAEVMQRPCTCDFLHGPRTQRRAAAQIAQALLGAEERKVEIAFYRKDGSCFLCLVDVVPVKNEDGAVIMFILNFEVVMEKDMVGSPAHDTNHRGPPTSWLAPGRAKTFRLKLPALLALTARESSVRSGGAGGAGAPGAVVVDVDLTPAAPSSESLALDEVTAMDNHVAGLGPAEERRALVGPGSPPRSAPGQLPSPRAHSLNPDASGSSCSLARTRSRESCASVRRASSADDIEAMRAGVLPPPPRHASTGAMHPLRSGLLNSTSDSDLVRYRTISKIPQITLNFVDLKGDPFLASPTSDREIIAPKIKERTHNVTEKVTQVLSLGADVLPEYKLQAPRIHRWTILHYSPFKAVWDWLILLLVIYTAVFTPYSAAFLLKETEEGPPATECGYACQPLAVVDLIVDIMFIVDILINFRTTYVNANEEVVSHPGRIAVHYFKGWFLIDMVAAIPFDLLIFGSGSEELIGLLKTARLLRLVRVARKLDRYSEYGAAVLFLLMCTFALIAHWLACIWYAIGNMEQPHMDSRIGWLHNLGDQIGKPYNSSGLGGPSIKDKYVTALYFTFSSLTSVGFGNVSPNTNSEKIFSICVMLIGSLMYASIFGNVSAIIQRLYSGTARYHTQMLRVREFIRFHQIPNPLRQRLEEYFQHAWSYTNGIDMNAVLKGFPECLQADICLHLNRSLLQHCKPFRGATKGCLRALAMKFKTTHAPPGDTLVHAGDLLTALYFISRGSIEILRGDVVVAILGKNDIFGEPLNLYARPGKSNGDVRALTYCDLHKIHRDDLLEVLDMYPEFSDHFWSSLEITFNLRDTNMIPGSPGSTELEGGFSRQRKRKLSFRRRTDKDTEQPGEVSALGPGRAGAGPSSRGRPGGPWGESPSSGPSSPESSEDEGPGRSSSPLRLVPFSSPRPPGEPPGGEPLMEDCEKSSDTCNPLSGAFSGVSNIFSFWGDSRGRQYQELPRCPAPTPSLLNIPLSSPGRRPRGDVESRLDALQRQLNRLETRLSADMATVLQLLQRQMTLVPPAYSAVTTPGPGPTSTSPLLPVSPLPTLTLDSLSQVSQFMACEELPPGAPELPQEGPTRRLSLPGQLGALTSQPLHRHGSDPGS
row,SMILES,"hERG current change (%, negative = inhibition) at 10uM [%]"
1,Nc1ccc2oc3ncccc3c(=O)c2c1,8.33
2,COc1ccccc1OC(C)C(=O)N(Cc1ccco1)C1CCS(=O)(=O)C1 (stereo not drawn),-9.12
3,O=C(NNC(=O)C1CCCO1)c1ccc(Cl)cc1 (stereo not drawn),0.563
4,O=c1[nH]n(-c2ccc(F)cc2)c2ncccc12,6.73
5,COc1ccc(CNC(=O)N2CCN(S(=O)(=O)c3ccccc3)CC2)cc1,-9.74
6,Cc1cnc(NC(=O)CSc2nnc(Cc3ccccc3)o2)s1,13.4
7,COc1ccccc1/C=N/NC(=O)c1sc(C)nc1C,15.2
8,COc1ccc(/C(=C/c2ccc(OC(F)F)c(OC)c2)C(=O)O)cc1OC,-3.94
9,CCNC(=O)C/C(C)=N/NC(=O)C1CCCCC1,4
10,COCCN(Cc1nc(C(c2ccccc2)c2ccccc2)no1)C(C)C,2.93
11,COC(=O)CNC(=O)c1c(-c2ccccc2Cl)noc1C,-5.68
12,O=C(CC1C(=O)NCCN1CCCc1ccccc1)NCCc1ccccc1F (stereo not drawn),-1.8
13,COc1ccc(C(=O)Nc2cccc(OC(=O)c3ccco3)c2)cc1,17.4
14,NC(=O)c1ccsc1NC(=O)COC(=O)COc1ccc(C=O)cc1,6.23
15,Cc1ccc2c(c1)N(C(=O)CCC(=O)N1CCCCC1)CCO2,-14.5
16,CC(C)COC(=O)/C(C#N)=C/c1cn(Cc2ccccc2)c2ccccc12,16.9
17,Cc1ccc2nc(-c3ccccc3)cc(C(=O)NNC(=O)c3csc(N4CCOCC4)n3)c2c1,-1.6
18,CC(C)(C)c1cc2cccnc2n1Cc1cccc(F)c1,-30.6
19,COc1cccc2c1C(=O)c1ccc3ccccc3c1C2=O,10
20,c1ccc(Oc2cccc(OCCCn3cncn3)c2)cc1,-22.5
21,Cn1cc(Br)c(C(=O)NNC(=O)c2ccccc2)n1,-2.02
22,CC(C)C(NS(=O)(=O)c1ccccc1)C(=O)OCc1cc([N+](=O)[O-])cc2c1OCOC2 (stereo not drawn),-3.66
23,Nc1ccc(Nc2ccccc2)cc1,1.98

row,SMILES,"hERG current change (%, negative = inhibition) at 10uM [%]"
1,CCOC(=O)Cc1csc(NC(=S)NC(=O)C(C)(C)C)n1,-15.4
2,C/C(=N\NC(=O)c1c(Cl)cnn1C)c1cccc(NC(=O)C(C)C)c1,-9.09
3,CCn1ncc(Br)c1C(=O)Nc1ccc2c(c1)OCCO2,4.95
4,Cc1cccc(NC(=O)[C@@H]2CCCN2C2=NS(=O)(=O)c3ccccc32)c1C,-17.3
5,CC(CN1CCOCC1)(NS(=O)(=O)c1ccccc1)c1ccccc1 (stereo not drawn),-21
6,Cc1cccc(C)c1NC(=O)COC(=O)C1C2CC3OC(=O)C1C3C2 (stereo not drawn),24.7
7,COCCCNC(=O)c1ccc(N2CCOCC2)c(NS(=O)(=O)c2ccc(OC)cc2)c1,-14.2
8,O=C(Oc1cccc(-c2cnc3ccccc3n2)c1)c1ccco1,-5.02
9,COC(=O)C1C(=O)C(C(=O)c2ccc([N+](=O)[O-])cc2)C(=O)CC1(C)C (stereo not drawn),19.8
10,Cc1noc(C)c1COc1ncnc2ccccc12,31.6
11,Cc1cc(NC(=O)CSc2nnc(CNC(=O)c3ccc(F)cc3)o2)no1,3.74
12,CCN(CC)CCNC(=O)Cc1c(C(=O)O)n(CC)c2ccccc12,9.46
13,O=C(CCn1nc(-c2ccccc2)c2ccccc2c1=O)NN1CCOCC1,24.3
14,COc1ccc(-n2c(CN3CCC(C)CC3)nc3ccc([N+](=O)[O-])cc3c2=O)c(OC)c1,4.93
15,CCOC(=O)c1c(C)nc2sc3c(=O)[nH]cnc3c2c1-c1ccc(OC)cc1,11.5
16,O=C1NCCN1CCNS(=O)(=O)c1ccc(F)c(Cl)c1,2.05
17,COc1ccccc1NC(=S)NCc1ccc(Cl)cc1,-14.4
18,C=CCc1cccc2cc(C(=O)NC)c(=O)oc12,-5.8
19,CCc1nc(N)c(C#N)c(-c2ccc(OC)c(OC)c2)c1C,9.93
20,O=C(CN1C(=O)C2C3C=CC(C3)C2C1=O)NC1CCCc2ccccc21 (stereo not drawn),-2.95
21,O=C(NCCC1=CCCCC1)C1CC(=O)N(Cc2ccccc2)C1 (stereo not drawn),2.53
22,CCN(CC(=O)NCc1cccs1)C(=O)c1ccccc1F,9.12
23,Cc1cc(NC(=O)c2cc3nc(C4CC4)cc(C(F)(F)F)n3n2)no1,-0.862

row,SMILES,"hERG current change (%, negative = inhibition) at 10uM [%]"
1,Cc1ccc(CN2C(=O)NC(=O)C3(Cc4c(nc5ccccn5c4=O)N4CCCCCC43)C2=O)cc1 (stereo not drawn),-0.877
2,O=C1c2ccccc2C(=O)N1CCc1ccccc1,4.5
3,N#Cc1nc(Cc2cccc3ccccc23)oc1N1CCC(C(N)=O)CC1,-12.8
4,O=C(COc1ccc([N+](=O)[O-])cc1)Nc1ccc(C(=O)NCc2cccnc2)cc1,-22.8
5,CCCS(=O)(=O)N1CCC(C(=O)NCCCN(C)Cc2ccccc2)CC1,3.83
6,COC(=O)C1=C(C)N(C2CCCC2)C(=O)C1(NC(C)=O)C(F)(F)F (stereo not drawn),0.779
7,CCOc1ccccc1NC(=O)CSC1=C(C#N)C(c2ccco2)C(C(=O)Nc2nc3ccccc3s2)=C(C)N1 (stereo not drawn),-3.6
8,O=C1C=C(c2ccc3c(c2)OCO3)C[C@@H](c2ccc3c(c2)OCO3)C1,10.9
9,COc1ccccc1C(=O)COC(=O)CSCC(=O)Nc1cc(C)on1,2.58
10,CC1(C)CC(NC(=O)N2c3ccccc3Sc3ccccc32)CC(C)(C)N1,-0.218
11,COc1ccc(C2CC(c3cccs3)=NN2C(=O)c2ccco2)cc1OC (stereo not drawn),-33.4
12,CC(=O)N1CCN(c2ccc(C(N)=O)cc2[N+](=O)[O-])CC1,8.73
13,CCOC(=O)c1cccc(C2=CC(=O)C[C@H](c3ccc(Cl)cc3)C2)c1,5.03
14,CCOC(=O)c1ccc(CSc2nnc(N)s2)cc1,-11.7
15,COc1ccccc1/C=N/OCc1ccc(C#N)cc1,-3.07
16,Cc1cc(C)n2nc(SCc3nnc(-c4cccs4)o3)nc2n1,9.05
17,CCC(C)Nc1nc2c(c(=O)n(C)c(=O)n2C)n1C (stereo not drawn),6.25
18,O=C(CSc1nnc(CNc2ccc(F)cc2)n1Cc1ccccc1)N1CCOCC1,-14.7
19,Cc1cc(C)n(C/C=C/Cn2nc(C)cc2C)n1,-16.6
20,COc1ccc(Nc2nc(NC(C)(C)C)nc(N3CCOCC3)n2)c(OC)c1,-25.3
21,COc1cccc(NC(=O)NNC(=O)c2ccc3c(c2)NC(=O)C(C)(C)O3)c1,15.4
22,Cc1ccc(NC(=O)CSc2nc3c(c(=O)[nH]2)CCC3)c(C)c1,21.3
23,CCC1CCCCN1C(=O)CCc1nnc(Cc2c[nH]c3ccccc23)o1 (stereo not drawn),-1.33

row,SMILES,"hERG current change (%, negative = inhibition) at 10uM [%]"
1,CC(NC(=O)CCCc1ccccc1)c1ccncc1 (stereo not drawn),-9.71
2,CCCn1c(SCC(=O)NCCc2ccccc2)nnc1-c1ccco1,-44.1
3,O=C(CCn1nc(-c2ccc(Cl)cc2)ccc1=O)N1CCN(c2ccc(F)cc2)CC1,-52.9
4,Cc1sc(NC(=O)c2ccco2)c(C(c2cccnc2)N2CCN(C)CC2)c1C (stereo not drawn),-32.7
5,CC(C)NC(=S)NC(=O)c1ccc(-c2ccccc2)cc1,-23.9
6,Nc1nncn1C(=O)c1cccs1,0.103
7,CCOC(=O)c1cc2c(ccn2C)n1CC(=O)N1CCN(c2ccc(F)cc2)CC1,5.83
8,COc1cc(OC)c(NC2c3ccccc3C(=O)N2c2cc(C)ccn2)cc1Cl (stereo not drawn),6.6
9,CCOc1ccc(NC(=O)Cn2nnc(C(=O)NCc3ccco3)c2N)cc1,15.1
10,O=[N+]([O-])c1ccc(NC2CCCC2)c2ccncc12,17.4
11,Br.Cn1c(=N)n(CC(=O)c2ccc(F)cc2)c2ccccc21,-23.2
12,O=C(O)c1ccc2c(c1)-c1cc(C(=O)O)ccc1S2(=O)=O,9.48
13,COc1ccc(S(=O)(=O)n2cccc2)c(OC)c1,5.65
14,CN(C)S(=O)(=O)c1ccc2c(c1)c(=O)c(C(=O)N1CCN(c3ccccn3)CC1)cn2C,7.01
15,O=C(CNC(=O)c1ccc(Br)o1)NNC(=O)c1ccc(Cl)cc1,-27.1
16,CC1(C)CC(=O)C=C(NCCN2CCN(C(=O)Nc3ccc(Cl)cc3)CC2)C1,-10.1
17,CCOC(=O)C1(C)NC(c2cccs2)C2C(=O)N(c3ccc(OC)cc3)C(=O)C21 (stereo not drawn),5.67
18,CCOc1ccccc1N1CC(C(=O)N(C)Cc2cccnc2)CC1=O (stereo not drawn),15
19,CC1CCCCN1Cc1c(O)ccc2c(=O)c(-c3nc4ccccc4s3)c(N)oc12 (stereo not drawn),-60.6
20,NS(=O)(=O)c1ccc(N=Nc2c(O)ccc3ccccc23)cc1,-15.3
21,O=C(N/N=C/c1c(O)n(Cc2ccccc2)c(=O)[nH]c1=O)c1ccncc1,12.9
